Source: patent publication US7279325 (dated 2007)

Target: T1, His-tagged ERR3 LBD (wild type; residues 229 to 458 of the Estrogen-Related Receptor 3) (human (human and murine receptor are …, UniProt P62508 229-458)
T1 construct: Expressed in E. coli BL21(DE3); Forms a homodimer in the crystal, in gel filtration and in mass spectrometry; SwissProt O75454 is printed for hERR3; also called wt LBD; wt ERR3; not shown: hexahistidine tag from vector pET-15b
T1 sequence: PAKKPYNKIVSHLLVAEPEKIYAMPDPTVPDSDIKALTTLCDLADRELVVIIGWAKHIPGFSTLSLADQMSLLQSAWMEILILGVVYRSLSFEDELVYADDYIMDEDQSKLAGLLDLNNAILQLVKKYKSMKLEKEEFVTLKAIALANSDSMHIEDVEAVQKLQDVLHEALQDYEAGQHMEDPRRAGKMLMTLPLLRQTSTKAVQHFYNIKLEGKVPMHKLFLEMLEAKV
Assay: native polyacrylamide gradient gel, proteins mixed 10 min on ice
Procedure: After purification the proteins were dialyzed in assay buffer (20 mM Tris.HCl pH 8.0, 200 mM NaCl), and concentrated. […] Protein complexes were resolved on native polyacrylamide gradient gels (8%-25%) using the Phast System (Pharmacia).
In vitro interaction assays with the RID (amino acids 617-764) of the coactivator SRC-1 has first been performed. […] Complexes were separated on native polyacrylamide gradient gels.

binding result: no binding
B1: GST (other)
chain: not shown
notes: also called glutathione S-transferase
